± gives the standard deviation of the averaged measurements. Laboratory Escherichia coli strains with one amino-acid change in an essential protein, pooled on minimal glucose agar with carbenicillin or gentamicin at twice the control MIC (plus kanamycin and chloramphenicol for the plasmids), 48 h. Fold change of barcode share against drug-free plates; higher = less susceptible. Active = above 20 in both replicates (the paper's putatively resistant). '<' = one read or none on drug, '>' = one read or none on a drug-free plate. Shares are relative, so most strains fall below 1 when a few take over. Listed are strains with at least 15 reads on both drug-free plates, and hits; most hits rest on fewer reference reads. Replicate rank correlation about 0.5. Edits are read from barcodes.
B1: topA; numbered along this chain (parent)
chain: MGKALVIVESPAKAKTINKYLGSDYVVKSSVGHIRDLPTSGSAAKKSADSTSTKTAKKPKKDERGALVNRMGVDPWHNWEAHYEVLPGKEKVVSELKQLAEKADHIYLATDLDREGEAIAWHLREVIGGDDARYSRVVFNEITKNAIRQAFNKPGELNIDRVNAQQARRFMDRVVGYMVSPLLWKKIARGLSAGRVQSVAVRLVVEREREIKAFVPEEFWEVDASTTTPSGEALALQVTHQNDKPFRPVNKEQTQAAVSLLEKARYSVLEREDKPTTSKPGAPFITSTLQQAASTRLGFGVKKTMMMAQRLYEAGYITYMRTDSTNLSQDAVNMVRGYISDNFGKKYLPESPNQYASKENSQEAHEAIRPSDVNVMAESLKDMEADAQKLYQLIWRQFVACQMTPAKYDSTTLTVGAGDFRLKARGRILRFDGWTKVMPALRKGDEDRILPAVNKGDALTLVELTPAQHFTKPPARFSEASLVKELEKRGIGRPSTYASIISTIQDRGYVRVENRRFYAEKMGEIVTDRLEENFRELMNYDFTAQMENSLDQVANHEAEWKAVLDHFFSDFTQQLDKAEKDPEEGGMRPNQMVLTSIDCPTCGRKMGIRTASTGVFLGCSGYALPPKERCKTTINLVPENEVLNVLEGEDAETNALRAKRRCPKCGTAMDSYLIDPKRKLHVCGNNPTCDGYEIEEGEFRIKGYDGPIVECEKCGSEMHLKMGRFGKYMACTNEECKNTRKILRNGEVAPPKEDPVPLPELPCEKSDAYFVLRDGAAGVFLAANTFPKSRETRAPLVEELYRFRDRLPEKLRYLADAPQQDPEGNKTMVRFSRKTKQQYVSSEKDGKATGWSAFYVDGKWVEGKK
B2: glmU; numbered along this chain (parent)
chain: MLNNAMSVVILAAGKGTRMYSDLPKVLHTLAGKAMVQHVIDAANELGAAHVHLVYGHGGDLLKQALKDDNLNWVLQAEQLGTGHAMQQAAPFFADDEDILMLYGDVPLISVETLQRLRDAKPQGGIGLLTVKLDDPTGYGRITRENGKVTGIVEHKDATDEQRQIQEINTGILIANGADMKRWLAKLTNNNAQGEYYITDIIALAYQEGREIVAVHPQRLSEVEGVNNRLQLSRLERVYQSEQAEKLLLAGVMLRDPARFDLRGTLTHGRDVEIDTNVIIEGNVTLGHRVKIGTGCVIKNSVIGDDCEISPYTVVEDANLAAACTIGPFARLRPGAELLEGAHVGNFVEMKKARLGKGSKAGHLTYLGDAEIGDNVNIGAGTITCNYDGANKFKTIIGDDVFVGSDTQLVAPVTVGKGATIAAGTTVTRNVGENALAISRVPQTQKEGWRRPVKKK

Variants of: B1
Experiment: barcode share on antibiotic plates over drug-free plates; higher = less susceptible
Conditions: with Escherichia coli (laboratory strain); antibiotic: carbenicillin; 2× MIC (3.1 µg/mL)
Procedure: (§1)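 A pool of E. coli strains, each edited to carry one amino-acid change in an essential protein, was grown for 48 h on minimal glucose agar with or without antibiotic; strain barcodes were sequenced; mean of two replicates.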

Variant	fold change of barcode share
F616A	0.491 ± 0.097
F616D	0.39 ± 0.31
F616P	0.464 ± 0.098
F616Q	0.405 ± 0.11
F616W	0.234 ± 0.046
L617D	0.735 ± 0.063
L617W	0.476 ± 0.19

Same assay, conditions: with Escherichia coli (laboratory strain); antibiotic: gentamicin; 2× MIC (MIC 0.45 µg/mL)

Variant	fold change of barcode share
F616A	0.0134 ± 0.0057
F616P	0.03 ± 0.029
F616Q	0.0407 ± 0.036
F616W	< 0.0091
L617W	< 0.0136
I7A	165 [active]
I7W	> 732 [active]
V8P	> 357 [active]
V199A	< 0.0202
V204D	3.74 ± 4.2
V204W	2.14 ± 1.5
L550P	> 121 [active]
L550Q	0.0905 ± 0.1
F571A	0.0645 ± 0.028
F571W	< 0.00907
L617A	< 0.0161

Variants of: B2
Experiment: as above
Conditions: with Escherichia coli (laboratory strain); antibiotic: carbenicillin; 2× MIC (3.1 µg/mL)
Procedure: as §1

Variant	fold change of barcode share
L53A	0.498 ± 0.12
L53P	0.45 ± 0.083
L100A	0.435 ± 0.32
L100D	0.871 ± 1
L100P	2.98 ± 1.7
L100Q	0.292 ± 0.044
L100W	1.11 ± 0.8
L128A	0.385 ± 0.084
L128D	0.279 ± 0.0062
L128P	1.1 ± 0.59
L128Q	0.341 ± 0.029
L128W	0.393 ± 0.092

Same assay, conditions: with Escherichia coli (laboratory strain); antibiotic: gentamicin; 2× MIC (MIC 0.45 µg/mL)

Variant	fold change of barcode share
L53A	0.00411 ± 0.00079
L53P	0.0536 ± 0.073
L100A	< 0.00361
L100D	< 0.0159
L100P	0.0122 ± 0.0086
L100Q	< 0.00259
L100W	0.0339 ± 0.033
L128A	0.00443 ± 0.0012
L128D	0.00555 ± 0.00024
L128Q	0.007465 ± 1.1e-05
L128W	0.00651 ± 0.00064

From the supplement of paper PMC11876631
